# Inconclusive results, whose numbers are uncertain, are shown with a selection of clear calls. For some of these results: Potencies beside an inconclusive call are fits to weak or partial responses and may not hold up. Active and inactive are the calls of the source. Unless noted, calls follow the shape of the dose curve; as a rule, active = well fitted curve in the direction sought with a large enough effect in the repeat runs; inconclusive = weak or mixed curves; inactive = no such curve, though single readings can be large; an effect the other way counts as inactive or inconclusive.
# What was measured:
# [1] = target: Luciferin 4-monooxygenase (Photinus pyralis) (UniProt P08659); assay: qHTS assay to identify small molecule inhibitors of firefly luciferase (AID 1224835); also: nearly all actives have a fitted effect of over 25% in size; also: potency is read from the fitted curve at half-maximal effect
# Chain of UniProt P08659 (P08659 whole entry, looked up): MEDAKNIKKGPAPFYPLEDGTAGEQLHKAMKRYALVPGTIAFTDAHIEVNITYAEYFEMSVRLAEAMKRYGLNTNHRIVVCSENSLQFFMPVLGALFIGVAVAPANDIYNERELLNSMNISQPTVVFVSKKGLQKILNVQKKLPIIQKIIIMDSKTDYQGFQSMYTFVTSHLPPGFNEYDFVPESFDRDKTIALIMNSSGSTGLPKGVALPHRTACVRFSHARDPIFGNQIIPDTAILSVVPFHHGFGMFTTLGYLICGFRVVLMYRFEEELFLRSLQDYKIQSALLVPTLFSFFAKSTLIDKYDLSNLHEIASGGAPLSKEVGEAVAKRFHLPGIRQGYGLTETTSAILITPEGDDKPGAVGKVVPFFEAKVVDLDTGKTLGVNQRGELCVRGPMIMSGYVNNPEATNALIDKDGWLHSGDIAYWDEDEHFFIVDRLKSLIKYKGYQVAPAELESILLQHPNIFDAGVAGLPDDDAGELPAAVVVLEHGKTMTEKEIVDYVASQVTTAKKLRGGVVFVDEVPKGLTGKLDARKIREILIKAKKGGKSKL
# Outline: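 Biochemical qHTS: compounds run as interplate titrations against purified firefly enzyme, with D-luciferin and ATP each at its KM concentration. Light output recorded by CCD imaging.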
# [2] = qHTS assay to identify small molecule agonists of H2AX (AID 1224845; active = well fitted activation curve with a large enough effect in the signal ratio in the repeat runs, not every such curve was filed as active; inconclusive = weak or mixed curves; the % refers to the signal ratio; also: potency is read from the fitted curve at half-maximal effect; as to activation (H2AX phosphorylation): % is scaled to controls: 0 for no effect and ±100 for the full control effect); conditions: CHO-K1 phospho-H2AX Ser139 HTRF, 3 h; activation (H2AX phosphorylation): at 154 µM (top of the series) unless noted
# Outline: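 Wild-type CHO-K1 cells, plated overnight, exposed 3hr at 37C to 15 concentrations (0.76% DMSO final). Lysed, then HTRF anti-pH2AX (S139) cryptate and anti-H2AX-d2 antibodies, 24 hr room temperature; 665/620 nm emission read.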
# [3] = qHTS assay to identify small molecule agonists of H2AX - cell viability counter screen (AID 1224847; calls by dose curve; also: nearly all actives have a fitted effect of over 30% in size; also: potency is read from the fitted curve at half-maximal effect; as to activity change, negative = cytotoxicity: top concentration of the series differs between compounds; % is scaled to controls: 0 for no effect and ±100 for the full control effect)
# Outline: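 Viability of CHO-K1 (wild type) cells after 3 hr compound exposure was measured by CellTiter-Glo luminescence.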
# [4] = target: Nuclear receptor subfamily 1 group I member 3 (Homo sapiens) (UniProt Q14994); assay: qHTS assay to identify small molecule agonists of the constitutive androstane receptor (CAR) signaling pathway (AID 1224839); also: potency is read from the fitted curve at half-maximal effect; nearly all actives have a fitted effect of over 15% in size
# Chain of UniProt Q14994 (Q14994 whole entry, looked up): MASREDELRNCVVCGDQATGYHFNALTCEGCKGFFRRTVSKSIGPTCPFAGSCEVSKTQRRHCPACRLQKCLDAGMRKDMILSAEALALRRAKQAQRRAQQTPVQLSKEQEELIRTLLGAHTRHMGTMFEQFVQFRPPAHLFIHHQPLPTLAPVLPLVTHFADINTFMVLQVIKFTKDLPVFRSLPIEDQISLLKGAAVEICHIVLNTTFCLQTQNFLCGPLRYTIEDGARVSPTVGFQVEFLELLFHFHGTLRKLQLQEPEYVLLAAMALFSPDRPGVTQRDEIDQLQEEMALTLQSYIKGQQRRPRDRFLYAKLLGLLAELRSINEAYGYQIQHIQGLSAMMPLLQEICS
# Outline: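 Stable hCAR/CYP2B6-2.2kb HepG2 line in DMEM with 10% FBS; compounds (15 concentrations) and 0.75 uM PK11195 final, 24 h at 37 C/5% CO2, then ONE-Glo luminescence after 30 min.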
# [5] = target: Thyrotropin receptor (Homo sapiens) (UniProt P16473); assay: qHTS assay to identify small molecule agonists of the thyroid stimulating hormone receptor (TSHR) signaling pathway (AID 1224843; calls by dose curve; also: nearly all actives have a fitted effect of over 45% in size; also: potency is read from the fitted curve at half-maximal effect; as to activation: % is scaled to controls: 0 for no effect and ±100 for the full control effect); conditions: TSHR-HEK293 cells, cAMP HTRF, agonist mode, 30 min; activation: at 92.4 µM (top of the series) unless noted
# Chain of UniProt P16473 (P16473 whole entry, looked up): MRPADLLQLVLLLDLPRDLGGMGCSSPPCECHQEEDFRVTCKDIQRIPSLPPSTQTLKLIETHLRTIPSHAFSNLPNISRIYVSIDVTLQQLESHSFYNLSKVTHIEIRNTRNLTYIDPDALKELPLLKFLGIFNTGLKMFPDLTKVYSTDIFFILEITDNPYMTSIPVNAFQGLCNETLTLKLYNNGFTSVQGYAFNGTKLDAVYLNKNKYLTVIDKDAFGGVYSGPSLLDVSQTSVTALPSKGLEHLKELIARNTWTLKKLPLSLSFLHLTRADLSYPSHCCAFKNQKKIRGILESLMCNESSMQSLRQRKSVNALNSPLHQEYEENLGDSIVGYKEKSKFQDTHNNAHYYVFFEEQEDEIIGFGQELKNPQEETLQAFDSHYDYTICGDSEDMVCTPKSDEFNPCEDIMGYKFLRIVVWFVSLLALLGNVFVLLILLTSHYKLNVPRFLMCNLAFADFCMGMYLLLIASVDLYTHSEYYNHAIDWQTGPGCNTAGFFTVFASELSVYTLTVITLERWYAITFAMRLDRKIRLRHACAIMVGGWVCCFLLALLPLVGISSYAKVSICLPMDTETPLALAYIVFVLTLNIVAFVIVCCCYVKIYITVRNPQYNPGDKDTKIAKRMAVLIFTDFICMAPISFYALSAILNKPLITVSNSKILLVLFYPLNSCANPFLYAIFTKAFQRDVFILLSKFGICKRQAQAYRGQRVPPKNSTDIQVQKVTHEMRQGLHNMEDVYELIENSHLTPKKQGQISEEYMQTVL
# Outline: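 TSHR-HEK293 cells in agonist mode, 30 min room-temperature step, then cAMP measured by competitive HTRF (cAMP-d2 with anti-cAMP cryptate) after 1 h at room temperature. Tested at 15 concentrations in triplicate.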
# [6] = qHTS assay to identify small molecule agonists of the hypoxia (HIF-1) signaling pathway (AID 1224846; active = well fitted activation curve with a large enough effect in the signal ratio in the repeat runs, not every such curve was filed as active; inconclusive = weak or mixed curves; the % refers to the signal ratio; also: potency is read from the fitted curve at half-maximal effect; as to activation: % is scaled to controls: 0 for no effect and ±100 for the full control effect); conditions: HRE-bla ME-180 cells, beta-lactamase ratio, 17 h; activation: at 76.8 µM (top of the series) unless noted
# Outline: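 Hypoxia-pathway activation was scored as increased beta-lactamase from an HRE-controlled reporter in ME-180 cells; plated at 2,000 cells per well with 0.5% dialyzed FBS, they were exposed 17 hrs to compounds and then given CCF4-AM.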
# [7] = qHTS assay to identify small molecule agonists of the hypoxia (HIF-1) signaling pathway - cell viability counter screen (AID 1224844; calls by dose curve; also: potency is read from the fitted curve at half-maximal effect; nearly all actives have a fitted effect of over 50% in size)
# Outline: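 Multiplexed with the HRE beta-lactamase assay, this viability read used CellTiter-Glo luminescence (30 min, RT) on HRE-bla ME-180 cells treated 17 hrs with compounds in 0.5% dialyzed FBS medium.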
# [8] = qHTS assay to identify small molecule antagonists of the estrogen related receptor (ERR) signaling pathway from Tox21 library (AID 1224848); also: potency is read from the fitted curve at half-maximal effect; nearly all actives have a fitted effect of over 50% in size
# Outline: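 ERR reporter cell line (from NTP) seeded 2,000 cells/well, rested 6 h at 37 C/5% CO2, then pin-dosed with compounds in DMSO. After 18 h at 37 C, ONE-Glo added; luminescence read after 30 min at room temperature.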
# [9] = qHTS assay to identify small molecule agonists of the estrogen related receptor signaling pathway with the pleiotropic PPARgamma coactivator (PGC) from Tox21 10K library (AID 1224842); also: potency is read from the fitted curve at half-maximal effect; nearly all actives have a fitted effect of over 15% in size
# Outline: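 PGC/ERR reporter cell line, 2,000 cells per well, incubated 6 h at 37 C before 23 nL compound in DMSO was added. After 18 h at 37 C, One-Glo luminescence read following 30 min at room temperature.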
# [10] = qHTS assay to identify small molecule agonists of the estrogen related receptor (ERR) signaling pathway from Tox21 library (AID 1224849; calls by dose curve; also: % is scaled to controls: 0 for no effect and ±100 for the full control effect; nearly all actives have a fitted effect of over 15% in size); conditions: ERR reporter cell line, ONE-Glo luciferase, 18 h; at 92.4 µM (top of the series)
# Outline: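 Six hours post-seeding at 37 C/5% CO2, ERR cells receive DMSO-solubilised compounds; after 18 h at 37 C, ONE-Glo reagent is applied and luminescence recorded.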
# [11] = qHTS RealTime-Glo MT Cell Viability Assay in HEK293 cells - 32 hour (AID 1224868); also: nearly all actives have a fitted effect of over 50% in size; also: potency is read from the fitted curve at half-maximal effect
# Outline: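 Viability tracked continuously by luminescence as live cells reduce a prosubstrate for NanoLuc; HEK293 cells preincubated 5 h, compound-treated at 37 C, and read at 0, 8, 16, 24, 32 and 40 h.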
# [12] = qHTS assay to identify small molecule agonists of the constitutive androstane receptor (CAR) signaling pathway - cell viability counter screen (AID 1224836); also: nearly all actives have a fitted effect of over 45% in size; also: potency is read from the fitted curve at half-maximal effect
# Outline: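 Fluorescence from CellTiter-Fluor indicates live cells after 23 h exposure. The human hepatoma line expresses hCAR and a CYP2B6-2.2kb reporter. Incubation medium contains 0.75 uM PK11195 (final).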
# [13] = qHTS assay to identify small molecule antagonists of the constitutive androstane receptor (CAR) signaling pathway - cell viability counter screen (AID 1224837); also: nearly all actives have a fitted effect of over 45% in size; also: potency is read from the fitted curve at half-maximal effect
# Outline: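 Using CellTiter-Fluor, viability is scored in HepG2 cells stably carrying hCAR and a 2.2kb CYP2B6 reporter after 23 hr compound exposure across 15 concentrations, with CITCO present at 50 nM.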
# [14] = qHTS assay to identify small molecule antagonists of the estrogen related receptor signaling pathway with the pleiotropic PPARgamma coactivator (PGC) from Tox21 10K library (AID 1224841; call rule not given here; also: potency is read from the fitted curve at half-maximal effect; actives are mostly falling curves and most rising ones were filed inactive; nearly all actives have a fitted effect of over 50% in size)
# Outline: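 Each well held 2,000 PGC/ERR cells, pre-incubated six hours (37 C, 5% CO2). Test substances in DMSO were added by pin tool and left for 18 h at 37 C before luciferase detection by One-Glo.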
# [15] = qHTS RealTime-Glo MT Cell Viability Assay in HepG2 cells - 24 hour (AID 1224867)
# Outline: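 Viability was tracked continuously by NanoLuc luminescence from prosubstrate reduced by living HepG2 cells, at successive time points over 40 h of compound exposure. Cells with reagent were preincubated 5 h at 37 °C before compound addition.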
# [16] = qHTS assay to identify small molecule antagonists of the estrogen related receptor signaling pathway with the pleiotropic PPARgamma coactivator (PGC) from Tox21 10K library - cell viability counter screen (AID 1224840; active = well fitted cell-killing curve with a large enough effect in the repeat runs, not every such curve was filed as active; inconclusive = weak or mixed curves, or effect the other way; inactive = no such curve, though single readings can be large or run the other way; also: potency is read from the fitted curve at half-maximal effect; nearly all actives have a fitted effect of over 40% in size)
# Outline: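 Here the PGC/ERR cells serve as a cytotoxicity control: they are exposed to compounds for 17.5 hours at 37 C, and live-cell signal is quantified using CellTiter-Fluor fluorescence.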
# Tags tell the direction and shape of the fitted curve or compound fluorescence and quenching.
smiles,measurement,setting,value
CCCCNc1ccc(NCCCC)c2c1C(=O)c1ccccc1C2=O,Potency,[1],"inconclusive: 7.56 µM [inhibitor, partial curve]"
same,Potency,[2],"inconclusive: 24 µM [falling, partial curve]"
same,"activity change, negative = cytotoxicity",[3],inactive: -12.2% [at 31.6 µM]
CCCCCOc1ccc(C2SC(=O)NC2=O)cc1OCC (centres undefined),Potency,[1],"inconclusive: 38.9 µM [inhibitor, partial curve]"
same,Potency,[4],"inconclusive: 26.6 µM [activator, partial curve]"
same,activation,[5],inconclusive: -13.3% [at 42.5 µM]
same,Potency,[6],inactive
CCCCCCCCCCCCCC(=O)O,Potency,[1],"inconclusive: 89.4 µM [inhibitor, single point]"
same,activation,[5],inconclusive: -21.5%
same,Potency,[7],"inconclusive: 48.9 µM [cytotoxic, single point]"
same,Potency,[2],inactive
O=C(Nc1ccc(Cl)c(Cl)c1)C1CC1,Potency,[1],"inconclusive: 34.7 µM [inhibitor, partial curve, poor fit]"
same,Potency,[4],"inconclusive: 23.7 µM [activator, partial curve]"
same,Potency,[8],"inconclusive: 18.8 µM [inhibitor, partial curve]"
CCCCOc1ccc(N)cc1,Potency,[1],"inconclusive: 56.4 µM [inhibitor, partial curve]"
same,Potency,[4],"inconclusive: 61.1 µM [activator, partial curve]"
same,Potency,[9],"inconclusive: 15.4 µM [activator, partial curve, poor fit]"
same,Potency,[2],"inconclusive: 101 µM [activator, partial curve]"
same,Potency,[3],inactive
same,"activity change, positive = activation",[10],inactive: 3.06%
CCO[Si](CCCCl)(OCC)OCC,Potency,[1],inactive
same,Potency,[3],inactive
CSc1cnccn1,Potency,[1],inactive
same,Potency,[11],"inconclusive: 27.5 µM [cytotoxic, partial curve, poor fit]"
Cc1cccc(Nc2ccccc2C(=O)O)c1C,Potency,[1],"inconclusive: 24.5 µM [inhibitor, partial curve]"
same,Potency,[2],"inconclusive: 113 µM [falling, single point]"
same,Potency,[3],inactive
CCCCCCCCC/C=C/CC1CC(=O)OC1=O (centres undefined),Potency,[1],"inconclusive: 89.4 µM [inhibitor, single point]"
same,Potency,[5],inactive
same,Potency,[7],"inconclusive: 61.6 µM [cytotoxic, partial curve, poor fit]"
CCCCC(CC)COC(=O)CC#N (centres undefined),Potency,[1],inactive
same,Potency,[3],inactive
CC(C)(C)C(=O)OCOP(=O)(COCCn1cnc2c(N)ncnc21)OCOC(=O)C(C)(C)C,Potency,[12],"inconclusive: 26.6 µM [cytotoxic, partial curve, poor fit]"
same,Potency,[13],"inconclusive: 11.9 µM [cytotoxic, partial curve]"
same,Potency,[14],"inconclusive: 3.35 µM [falling, single point]"
same,Potency,[9],inconclusive: 33.5 µM [activator]
same,Potency,[7],"inconclusive: 2.39 µM [cytotoxic, full curve]"
same,Potency,[2],active: 0.277 µM
same,Potency,[6],inactive
same,Potency,[8],"inconclusive: 0.944 µM [inhibitor, full curve]"
CCc1c(C)[nH]c2c1C(=O)C(CN1CCOCC1)CC2 (centres undefined),Potency,[13],inactive
S=C([S-])NCCNC(=S)[S-].[Mn+2],Potency,[12],"inconclusive: 3.44 µM [cytotoxic, full curve]"
same,Potency,[13],"inconclusive: 2.73 µM [cytotoxic, full curve, poor fit]"
same,Potency,[11],"inconclusive: 54.9 µM [rising, single point]"
CC(=O)NS(=O)(=O)c1ccc(N)cc1,Potency,[12],"inconclusive: 11.9 µM [rising, single point]"
same,Potency,[11],inactive
CC1(O)CSC(C)(O)CS1 (centres undefined),Potency,[13],inactive
Oc1ccc(C2(c3ccc(O)c(C4CCCCC4)c3)CCCCC2)cc1C1CCCCC1,Potency,[12],active: 48.6 µM
same,Potency,[13],active: 27.3 µM
same,Potency,[5],active: 6.86 µM
same,Potency,[7],active: 12.3 µM
same,Potency,[2],active: 22.5 µM
same,Potency,[6],"inconclusive: 13.8 µM [falling, partial curve]"
same,Potency,[3],active: 22.5 µM
same,Potency,[11],active: 38.9 µM
Cn1c(NCCN(CCO)CCCc2ccc([N+](=O)[O-])cc2)cc(=O)n(C)c1=O,Potency,[12],inactive
same,Potency,[15],inactive
same,Potency,[11],inactive
CC(C)c1cc2c(cc1S(=O)(=O)O)[C@@]1(C)CCC[C@@](C)(C(=O)O)[C@@H]1CC2,Potency,[12],inactive
same,Potency,[5],inactive
CCOc1cc(OCC)c(C(C)=O)cc1OCC,Potency,[12],"inconclusive: 47.7 µM [cytotoxic, partial curve]"
same,Potency,[16],"inconclusive: 21.3 µM [cytotoxic, partial curve, poor fit]"
same,Potency,[5],inactive
same,Potency,[8],"inconclusive: 47.7 µM [inhibitor, partial curve]"
